Experimental data as given in the RNAGym collection of RNA variant scans (doi:10.1093/nar/gkz1192).
Read counts are not given, so values of variants with three or more changes are uncertain.

B1: CPEB3 Ribozyme (parent)
chain: UAACAGGGGGCCACAGCAGAAGCGUUCACGUCGCAGCCCCUGUCAGAUUCUGGUGAAUCUGCGAAUUCUGCUGUAUAUCUC

Variants of: B1
Assay: self-cleavage, relative activity (ratio to wild type); higher = more cleavage; in vitro, sequencing
Procedure, shortened: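 CPEB3 self-cleaving ribozyme mutant libraries were made by rounds of error-prone PCR, barcoded, and transcribed in vitro with T7 RNA polymerase for 5 hours at 37°C. Cleavage occurred during transcription and a 15 min DNase I step before EDTA stop. RNAs were reverse transcribed with template switching and Illumina-sequenced, with DNA sequencing mapping barcodes to variants. Relative activity is the variant's cleaved/total read fraction divided by wild type's (minimum 5 reads), averaged across three batches.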

For UAACAGGGGGCCACAUCAGAAGCGUUCACGUCGCAGCCCUUGUCAGAUUCUGGUGAAUCUGCGAGUUCUGCUGCAUAUCUC [G16U C40U A65G U74C], which self-cleavage is on record?
Its self-cleavage is 0.15.

Which self-cleavage does the source give for UAACAGGGGGCCACAUCAGAGGCGUUCUCGUCGCAGCACCUGUCAGAUUCUGGUGAAUCUGCGAAUUCUGCUGUAUAUCUC [G16U A21G A28U C38A] here?
Its self-cleavage is 0.25.

With UAACAGGGGGCCACAUCAUAAGCGUUCACGUCGCAGCCCCUGUCAGAUUCCGGUGAAUCCGCGGAUUCUGCUGUAUAUCUC [G16U G19U U51C U60C A64G] as the variant, how does the self-cleavage read?
The self-cleavage was 0.13.

For UAACAGGGGGCCACAUCAGAGGCAUUCACGUCGCAGCACCUGUCAGAUUCUGGUGAAUCCGCGAAUUCUGCUGUAUAUCUC [G16U A21G G24A C38A U60C], which self-cleavage is on record?
Its self-cleavage is 0.23.

For UAACAGGGGGCCACAUCAGAAGCGUUCACGUCGCAGCCCAUGUCAGAUUCUGGUGAAUCUGCGAAUUCUGCUGUUUAUCUC [G16U C40A A75U], which self-cleavage is on record?
The self-cleavage was 0.06.

For UAACAGGGGGCCACAUCAGAACCGUUCACGUCGCAACCCCUGUCAGAUUCUGGUGAAUCUGCGGAUUCUGCUGUAUACCUC [G16U G22C G36A A64G U78C], which self-cleavage is on record?
The self-cleavage was 0.16.

With UAACAGGGGGCCACAUCAGAUGCGUACACGUCGCAGCCCCUGUCAGAUACUGGUGAAUCUGCGAGUUCUGCUGUAUAUCUC [G16U A21U U26A U49A A65G] as the variant, how does the self-cleavage read?
Its self-cleavage is 0.21.

For UAACAGGGGGCCACAUCAGAUGCGUCCACGUUGCAGCCCCUGUCAGAUUCUGGUGAAUCUGCGGAUUCUGCUGUAUAUCUC [G16U A21U U26C C32U A64G], which self-cleavage is on record?
Its self-cleavage is 0.05.

Which self-cleavage does the source give for UAACAGGGGGCCACAUCAGAAGCGUUCACGUCGCAGCCGCUGUCAGAUUCUGGUGAAUCUGCGAAUCCUGCUGUAUAUCUC [G16U C39G U67C] here?
Its self-cleavage is 0.08.

For UAACAGGGGGCCACAUCAGGAGCGUUCACGUCGCAGCCCCUGUCAGGUUCUGGUGAAUCUGCGAAUUCUGCUGUAUAUCCC [G16U A20G A47G U80C], which self-cleavage is on record?
Its self-cleavage is 0.07.

For UAACAGGGGGCCACAUCAGAAGCGUUCACGUGGCAGCCCCUGUCAGGUUCUGGUGAAUCUGCGAAUUCUGCUGUAUAUCUC [G16U C32G A47G], which self-cleavage is on record?
The self-cleavage was 0.06.

For UAACAGGGGGCCACAUCAGAAGAGUUCACGUCGCAGCCCCCGUCAGAUUCUGGUGGAUCUGCGAAUUCUGCUGUAUAUCUC [G16U C23A U41C A56G], which self-cleavage is on record?
Its self-cleavage is 0.06.

Which self-cleavage does the source give for UAACAGGGGGCCACAUCAGAAGCGUUCGCGUCGCAGCCCCUGUCAGAUUCCGGUGAAUCUGCGAAUUCUGCUGUAAAUCUC [G16U A28G U51C U76A] here?
The self-cleavage was 0.09.

For UAACAGGGGGCCACAUCAGAAGCGUUCACGUCGCAGCCCCUGUCAGAUUCUAGUGAAUCUGCGAAUACUGCUGUAUAUCUC [G16U G52A U67A], which self-cleavage is on record?
The self-cleavage was 0.14.

For UAACAGGGGGCCACAUCAGAAGCGUUCACGUCGCACCCCCUGGCAGAUUCCGGUGAAUCAGCGAAUUCUGCUGUAUAUCUC [G16U G36C U43G U51C U60A], which self-cleavage is on record?
The self-cleavage was 0.08.

For UAACAGGGGGCCACAUCAGAAGCGUUCCCGUCGCAGCCCCUGUCAGACUCUGGUGAGUCUGCGAAUUCAGCUGUAUAUCUC [G16U A28C U48C A57G U69A], which self-cleavage is on record?
Its self-cleavage is 0.11.

For UAACAGGGGGCCACAUCAGAAGCUCUCACGACGCAGCCCCUGUCAGAUUCUGGUGAAUCUGCGAAUUCUUCUGUAUAUCUC [G16U G24U U25C U31A G70U], which self-cleavage is on record?
Its self-cleavage is 0.07.

Which self-cleavage does the source give for UAACAGGGGGCCACAUCAGAAGCGUUCACGUCGCGGCCCCAGUCAGAUUCUGGUGAACCUGCGAAUUCUGCUGUAUAUCUC [G16U A35G U41A U58C] here?
Its self-cleavage is 0.05.

For UAACAGGGGGCCACAUCAGGAGCGUUCUCGCCGCAGCCCCUGUCAGAUUCUGGUGAAUCUGCGAACUCUGCUGUAUAUCCC [G16U A20G A28U U31C U66C U80C], which self-cleavage is on record?
Its self-cleavage is 0.05.

With UAACAGGGGGCCACAUCUGAAGCGUUCACGUCGCAGCCCCAGUCAGGUUCUGGUGAAUCUGCGAAUUCUGCUGUAUAUCUC [G16U A18U U41A A47G] as the variant, how does the self-cleavage read?
Its self-cleavage is 0.02.

With UAACAGGGGGCCACAUCAGAAGCGCUCACGCCGCAGCCCCUGUCAGAUUCUGGUGAAUCUGCGAAUUCUGCUGUAUAUCUC [G16U U25C U31C] as the variant, how does the self-cleavage read?
The self-cleavage was 0.08.

For UAACAGGGGGCCACAUCAGAGGCGUUCACGUCGCAGCCCCUGCCAGGUUCUGGUGAAUCUGCGAAUUCUGCUGUAUAUCCC [G16U A21G U43C A47G U80C], which self-cleavage is on record?
Its self-cleavage is 0.29.

Which self-cleavage does the source give for UAACAGGGGGCCACAUCAGAAGCGCUCACGUCGCAGCCCCGGUCAGAUUCUGGUGAGUCUGCGAAUUCUGCUCUAUAUCUC [G16U U25C U41G A57G G73C] here?
Its self-cleavage is 0.09.

With UAACAGGGGGCCACAUCAGAAGCGUACACGUCGCGGCCCCUGUCAGAUUCUGGUGAAACUGCAAAUUCUGCUGAAUAUCUC [G16U U26A A35G U58A G63A U74A] as the variant, how does the self-cleavage read?
Its self-cleavage is 0.27.

Which self-cleavage does the source give for UAACAGGGGGCCACAUCGGAAGCGUUCACGUCGCAGCCCCUGUCAGAUUCUGGUGAAUCUGCGAAUUCUGCUGUAUAACUC [G16U A18G U78A] here?
The self-cleavage was 0.51.

With UAACAGGGGGCCACAUCAGAAGUGUUCACGUCGCGGCCCCUGUCAGAUUCUGGUGAAUCUGCGAAUUCUGCUGUAUAUCUC [G16U C23U A35G] as the variant, how does the self-cleavage read?
The self-cleavage was 0.36.

With UAACAGGGGGCCACAUCAGAGGCGUUCACGUCGCAGCCCCUGUCAGAUUCCGGUAAAUCUGCUAAUUCUGCAGUAUAUCUC [G16U A21G U51C G55A G63U U72A] as the variant, how does the self-cleavage read?
The self-cleavage was 0.12.

For UAACAGGGGGCCACAUCAGAAGCCUUCACGCCGCAGCCCCUGUCAGAUUCUGGUGUAUCUGCGAAUUCUGCUGUAUGUCUC [G16U G24C U31C A56U A77G], which self-cleavage is on record?
The self-cleavage was 0.08.

For UAACAGGGGGCCACAUCAGAAGCGUUCACGUCGCAGCCCCUGUCGGAUUCUGGUGAAUCUGCGAAUUCUGCAGUAUAUCUC [G16U A45G U72A], which self-cleavage is on record?
The self-cleavage was 0.19.

Which self-cleavage does the source give for UAACAGGGGGCCACAUCAGAAGCGUUCACGUCGCACCCCCUGGCAGAUUCCGGUGAAUCCGCGAAUUUUGCUGUAUAUCUC [G16U G36C U43G U51C U60C C68U] here?
Its self-cleavage is 0.03.

For UAACAGGGGGCCACAUCAGAAGCGUUCACGUCGCACCCCCUGGCAGAUUCCGGGGAAUCUGCAAAUUCUGCUGUAUAUCUC [G16U G36C U43G U51C U54G G63A], which self-cleavage is on record?
Its self-cleavage is 0.06.

For UAACAGGGGGCCACAUCAGAAGCGUUCACGUCGCAGCCCCUGUCAGAUUCUGGUGUAUCUGCGAAUUCUGCCGUAUGUCUC [G16U A56U U72C A77G], which self-cleavage is on record?
Its self-cleavage is 0.17.

For UAACAGGGGGCCACAUCAGAAGCGUUCACGUCGCAGCCCCUGUCAGGUUCUGGUGAAUCUGCGAAUUCUGCUGUAUAUCCC [G16U A47G U80C], which self-cleavage is on record?
Its self-cleavage is 0.69.

With UAACAGGGGGCCACAUCAGAAGUGUUCACGUCGCAGCCCCUGUCAUAUUCUGGUGAAUCUGCGAAUUCUGCUCUAUACCUC [G16U C23U G46U G73C U78C] as the variant, how does the self-cleavage read?
Its self-cleavage is 0.19.
